# The shares of active, inactive and inconclusive entries below differ from those in the screen. No potency is given beside an inconclusive call; the fits are too rough. Activity calls are given as the source filed them. Calls follow the shape of the dose curve; as a rule, active = well fitted cell-killing curve with a large enough effect; inconclusive = small, poorly fitted or top-dose-only effect; inactive = flat fitted curve, though single readings scatter.
# Experiment: qHTS of pediatric cancer cell lines to identify multiple opportunities for drug repurposing: Primary screen for BT-12 cells (AID 1347101); also: nearly all actives have a fitted effect of over 25% in size;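 as to activity change, negative = cytotoxic: plate controls were DMSO for no effect and bortezomib positive control for full effect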
# Conditions: BT-12 viability, CellTiter-Glo luminescence, 48 h; series mostly up to 57.3 µM; activity change, negative = cytotoxic: at the top concentration
# Method in brief: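 Cells (500-1,000/well) rested 5 h, then received compounds for 48 h; metabolically active cells were measured by CellTiter-Glo luminescence. Final concentrations spanned up to 46 µM (MIPE, 11-point) or 0.59 nM-46 µM (NPC, 8-point) in primary screens, 11-point in follow-ups.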
# Potency is read from the fitted curve at half-maximal effect; tags tell the direction and shape of the fitted curve.
Structure (SMILES),Potency,"activity change, negative = cytotoxic"
O=[N+]([O-])c1ncc[nH]1,"inconclusive [cytotoxic, partial curve, poor fit]",–
C[C@@]12OC(=O)[C@]1([C@@H](O)[C@@H]1C=CCCC1)NC(=O)[C@H]2CCCl,active: 0.137 µM,–
CC[C@@H](C(N)=O)N1CCCC1=O,–,inactive: -5.52%
CC(=O)Nc1ccc(OC[C@](C)(O)C(=O)Nc2ccc([N+](=O)[O-])c(C(F)(F)F)c2)cc1,–,inactive: -12.7%
CCN(CC)C(=O)N[C@@H]1C=C2c3cccc4[nH]cc(c34)C[C@@H]2N(C)C1,–,inactive: 3.59%
CCC1(C2=NCCN2)Cc2ccccc2O1 (stereo not given),–,inactive: 5.08%
COCC1(CO)C(=O)C2CCN1CC2 (stereo not given),active: 21.7 µM,–
CC(C)C[C@H](CN)CC(=O)O,–,inactive: 6.8%
CN1CC[C@]23c4c5ccc(O)c4O[C@H]2[C@@H](O)CC[C@H]3[C@H]1C5,–,inactive: 5.07% [at 116 µM]
CC1COC2(c3ccccc3Cl)c3cc(Cl)ccc3NC(=O)CN12 (stereo not given),"inconclusive [cytotoxic, single point]",–
CC[C@@H](CO)NC(=O)[C@@H]1C=C2c3cccc4c3c(cn4C)C[C@H]2N(C)C1,"inconclusive [cytotoxic, partial curve, poor fit]",–

# Experiment: qHTS of pediatric cancer cell lines to identify multiple opportunities for drug repurposing: Primary screen for Rh18 cells (AID 1347102); also: nearly all actives have a fitted effect of over 65% in size; as to activity change, negative = cytotoxic: % is scaled to controls: 0 for no effect and ±100 for the full control effect
# Conditions: Rh18 rhabdomyosarcoma viability, CellTiter-Glo luminescence, 48 h; series mostly up to 46 µM; activity change, negative = cytotoxic: at the top concentration
# Method in brief: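 Cells (500-1,000/well) in growth media were settled 5 h at 37 degrees C, then given compounds for 48 h. Viability was read as CellTiter-Glo luminescence. Primary runs used MIPE at 11 points (0.78 nM-46 µM) and NPC at 8 points (0.59 nM-46 µM); follow-ups used 11 points.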
Structure (SMILES),"activity change, negative = cytotoxic",Potency
CCN(CC)CCN1C(=O)CN=C(c2ccccc2F)c2cc(Cl)ccc21,inactive: -11.6%,–
C=C1CC[C@@]2(O)[C@H]3Cc4ccc(O)c5c4[C@@]2(CCN3CC2CC2)[C@H]1O5,inactive: 9.68%,–
N#C[C@H](O[C@@H]1O[C@H](CO[C@@H]2O[C@H](CO)[C@H](O)[C@H](O)[C@H]2O)[C@H](O)[C@H](O)[C@H]1O)c1ccccc1,–,"inconclusive [cytotoxic, single point]"
CCCCCCCCCC(=O)O[C@H]1CC[C@H]2[C@@H]3CCC4=CC(=O)CC[C@@H]4[C@H]3CC[C@]12C,inactive: 3.58%,–

# — PubChem BioAssay (NCATS)
